Hit rate of the full screen: of about 110,000 compounds, about 230 (0.21%) showed an effect of 50% or more. The list shows a part of the results.
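Also: 30 min substrate incubation versus DMSO and 10 µM JCP410 controls.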

For this assay, the target named is DPAP1 (Plasmodium falciparum, UniProt Q8IIJ9). Nature of the assay: primary screen, percent inhibition; read by cleavage of a fluorogenic dipeptide substrate; higher = more effect of the substance. Details: species or system P. falciparum D10 trophozoite lysates; single well.
Chain of DPAP1 (Q8IIJ9 whole entry, looked up): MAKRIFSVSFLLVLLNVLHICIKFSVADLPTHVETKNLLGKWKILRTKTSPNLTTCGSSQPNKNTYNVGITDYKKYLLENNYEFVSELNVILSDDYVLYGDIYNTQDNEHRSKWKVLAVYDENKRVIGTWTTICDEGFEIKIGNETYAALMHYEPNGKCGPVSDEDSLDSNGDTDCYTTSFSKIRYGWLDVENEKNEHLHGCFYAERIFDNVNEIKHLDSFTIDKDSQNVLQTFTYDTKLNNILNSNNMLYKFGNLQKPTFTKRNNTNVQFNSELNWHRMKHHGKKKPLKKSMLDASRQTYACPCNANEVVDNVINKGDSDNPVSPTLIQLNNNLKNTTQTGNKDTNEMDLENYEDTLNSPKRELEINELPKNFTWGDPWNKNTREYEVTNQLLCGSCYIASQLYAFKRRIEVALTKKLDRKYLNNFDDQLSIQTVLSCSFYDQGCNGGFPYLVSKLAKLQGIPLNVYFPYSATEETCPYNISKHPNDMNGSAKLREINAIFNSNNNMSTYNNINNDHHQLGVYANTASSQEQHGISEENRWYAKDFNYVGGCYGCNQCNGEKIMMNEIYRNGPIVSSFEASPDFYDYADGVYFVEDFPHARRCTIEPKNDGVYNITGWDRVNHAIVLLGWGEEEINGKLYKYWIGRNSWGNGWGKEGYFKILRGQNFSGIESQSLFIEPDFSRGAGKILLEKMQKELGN
`CC(C)(C)c1ccc(C(=O)N/C(=C\c2cccs2)C(=O)NCc2ccco2)cc1`: the “% Inhibition @ 10 uM” value is 2.36%.

For the compound `COc1cc(C(=O)Nc2ccc(-c3cn4cccc(C)c4n3)cc2)cc(OC)c1OC`, the “% Inhibition @ 10 uM” value is given as 14.3%.

As to `CC(C)CCNc1nc2c(S(=O)(=O)c3ccc(Cl)cc3)nnn2c2ccsc12`, the “% Inhibition @ 10 uM” value is reported as 1.95%.

`O=C(NC1CCCCCC1)C1CCC(CNc2c(N3CCOCC3)c(=O)c2=O)CC1` (stereo not shown): the “% Inhibition @ 10 uM” value is reported as 1.22%.

Turning to `COc1ccc(N(CCC#N)S(=O)(=O)c2cccc3nsnc23)cc1`, the “% Inhibition @ 10 uM” value is on record as -3.48%.

Consider `O=C(NCCO)/C(=C/c1ccc2c(c1)OCO2)NC(=O)c1ccco1`, for which the “% Inhibition @ 10 uM” value was -0.736%.

In the case of `CC1C=CCC2C(=O)N(c3cccc(NC(=O)c4ccccc4)c3)C(=O)C12` (stereo not shown), the “% Inhibition @ 10 uM” value amounted to 3.26%.

For the compound `CCOC(=O)c1c(NC(=O)c2cc(-c3ccc(OC)cc3)on2)sc2c1CCCC2`, the “% Inhibition @ 10 uM” value is listed as 4.5%.

For `O=C(CN1C(=O)c2ccccc2C1=O)Nc1ccccc1-c1ccccc1`, the “% Inhibition @ 10 uM” value was determined as 1.7%.

Take `COc1ccc(S(=O)(=O)c2c(C)c(NC(=O)c3ccccc3)cc(C)c2O)cc1`: the “% Inhibition @ 10 uM” value is -2.83%.

Take `CCOC(=O)C1=C(CN2CCN(Cc3ccccc3)CC2)NC(=O)NC1c1ccc(OC)cc1` (stereo not shown): the “% Inhibition @ 10 uM” value turned out to be 2.19%.

For `CN(Cc1ccccc1)S(=O)(=O)c1csc(C(N)=O)c1`, the “% Inhibition @ 10 uM” value is -3.44%.

Regarding `CC1CCCC(C)N1CCCNC(=O)C1CCCN(S(=O)(=O)N2CCCCC2)C1` (stereo not shown), the “% Inhibition @ 10 uM” value is given as -0.232%.

For the compound `COc1ccc(N(CC(=O)N2CCC(C)CC2)S(C)(=O)=O)cc1`, the “% Inhibition @ 10 uM” value was 4.76%.

With `CC1CCN(C(=O)Cn2c3ccccc3c3cnnc(O)c32)CC1`, the “% Inhibition @ 10 uM” value was determined as 1.38%.

Consider `CCOc1ccccc1N1CCN(S(=O)(=O)c2ccc(NC(C)=O)cc2)CC1`, for which the “% Inhibition @ 10 uM” value was -3.24%.

Turning to `COc1ccc(NC(=O)c2ccc(Br)o2)cc1`, the “% Inhibition @ 10 uM” value is given as -2.42%.

For `CCc1ccc2occ(CC(=O)N(Cc3ccc(F)cc3)C3CCS(=O)(=O)C3)c2c1` (stereo not shown), the “% Inhibition @ 10 uM” value was determined as 2.62%.

As for `O=C(O)CCCC(=O)Nc1ccc(Cl)c(Cl)c1`, the “% Inhibition @ 10 uM” value is -4.35%.

As to `CC(C)Cn1cc(C(=O)N(C)Cc2ccccc2)c2c3ccccc3n(C)c2c1=O`, the “% Inhibition @ 10 uM” value is 4.68%.

Consider `CCC1(C)Cc2c(sc3nc(SCC(=O)c4ccccc4)nc(N)c23)CO1` (stereo not shown), for which the “% Inhibition @ 10 uM” value turned out to be 0.992%.

For `CCOc1c(Cl)cc(CNCCNC(=O)c2nonc2N)cc1OC`, the “% Inhibition @ 10 uM” value was -9.21%.

Regarding `O=C(Cc1c[nH]c2ccccc12)NCc1ccccc1`, the “% Inhibition @ 10 uM” value came out at 0.238%.

Turning to `Cc1cc(C)c(C)c(S(=O)(=O)NCC(=O)Nc2sc3c(c2C(N)=O)CCCC3)c1C`, the “% Inhibition @ 10 uM” value was determined as 4.83%.

`Cc1ccc(-c2cc(-c3ccccc3Cl)[nH]n2)c(O)c1`: the “% Inhibition @ 10 uM” value is given as -2.58%.

In the case of `CCOC(=O)COc1ccccc1OCC`, the “% Inhibition @ 10 uM” value was 2.54%.

`Cn1nnc2c(NCC(=O)C(C)(C)C)nc(Cc3ccc(Cl)cc3Cl)nc21`: the “% Inhibition @ 10 uM” value was found to be 0.0367%.

Take `CCn1cc(/C=C(\NC(=O)c2ccccc2)C(=O)NCc2ccco2)c2ccccc21`: the “% Inhibition @ 10 uM” value turned out to be 3.24%.

Regarding `CCN1CCN(C(=O)CCc2c(C)nc3c(c(C)nn3-c3ccc(C)cc3)c2C)CC1`, the “% Inhibition @ 10 uM” value amounted to 0.953%.

Take `CC1CCN(S(=O)(=O)c2ccc(NC(=O)c3ccc(F)cc3)cc2)CC1`: the “% Inhibition @ 10 uM” value amounted to 6.17%.

On to `CC(C)(C)NC(=O)CCNS(=O)(=O)c1ccc2[nH]c(-c3ccccc3)nc2c1`, for which the “% Inhibition @ 10 uM” value amounted to 3.04%.

On to `CCOc1ccc(C2N=C(N)Nc3nc4ccccc4n32)cc1OC` (stereo not shown), for which the “% Inhibition @ 10 uM” value is reported as -1.68%.

Consider `COc1ccc(CNCCc2ccc(Cl)cc2Cl)cc1Br`, for which the “% Inhibition @ 10 uM” value stood at 4.61%.

Turning to `O=C(Cc1cccc2ccccc12)Nc1ccc(F)cc1F`, the “% Inhibition @ 10 uM” value is on record as -1.25%.

For `CC1=C(C(=O)Nc2ccccc2)C(c2ccco2)C(C#N)=C(SCC(=O)c2cccc(Br)c2)N1` (stereo not shown), the “% Inhibition @ 10 uM” value is reported as 6.15%.

Consider `Cc1cc(C2(c3ccc(O)c(C)c3)C(=O)N(Cc3cccc4ccccc34)c3ccccc32)ccc1O`, for which the “% Inhibition @ 10 uM” value is recorded as 4.15%.

Turning to `CCC(=O)N1C(C(=O)NCc2ccccc2)CSC12CCN(C)CC2` (stereo not shown), the “% Inhibition @ 10 uM” value is on record as -8.35%.

As to `O=C1c2ccccc2NC(c2ccccc2)N1Cc1ccccc1` (stereo not shown), the “% Inhibition @ 10 uM” value came out at 1.61%.

In the case of `COc1cc2c(C(=O)NCCC3=CCCCC3)cn(C)c(=O)c2cc1OC`, the “% Inhibition @ 10 uM” value came to 3.34%.

On to `Cc1cc(-c2ccc(S(=O)(=O)NC3CCCc4ccccc43)s2)on1` (stereo not shown), for which the “% Inhibition @ 10 uM” value is -3.23%.

For the compound `CCOc1ccc(CC(=O)Nc2ccc(C)cc2)cc1OCC`, the “% Inhibition @ 10 uM” value is given as -0.173%.

In the case of `Cc1nnc(NC(=O)CSc2cn(Cc3ccccc3Cl)c3ccccc23)s1`, the “% Inhibition @ 10 uM” value was -2.7%.

In the case of `O=C(N/C(=C\c1ccc(O)cc1)C(=O)N1CCOCC1)c1ccccc1Cl`, the “% Inhibition @ 10 uM” value is reported as 2.17%.

Consider `COc1ccc(CCNC(=O)CN2N=C(c3ccccc3)CCC2=O)cc1OC`, for which the “% Inhibition @ 10 uM” value was -1.21%.

As for `CCC(C)NC(=O)CCc1c(C)nc2nc(C)nn2c1C` (stereo not shown), the “% Inhibition @ 10 uM” value is given as -2.25%.

Turning to `COC(=O)c1ccccc1NC(=O)C(C)Oc1cccc(C)c1` (stereo not shown), the “% Inhibition @ 10 uM” value came to 0.161%.

For the compound `O=C(Nc1ccccc1)N(CCCN1CCOCC1)Cc1cccc2ccccc12`, the “% Inhibition @ 10 uM” value is 0.316%.

In the case of `O=C(COc1ccc(Br)cc1)N1CCCCC1`, the “% Inhibition @ 10 uM” value was determined as 0.634%.

`O=C(C(C(=O)N1CCCCC1)C12CC3CC(CC(C3)C1)C2)N1CCCCC1`: the “% Inhibition @ 10 uM” value came to 6.94%.

For `Cn1c(=O)n(Cc2ccc(Cl)cc2)c(=O)c2c1nc(NCCO)n2Cc1ccccc1`, the “% Inhibition @ 10 uM” value came to 3.93%.

Regarding `COc1cc(/C=C2/NC(=O)N(CC(=O)Nc3ccc(C)cc3)C2=O)cc(Cl)c1O`, the “% Inhibition @ 10 uM” value worked out at 3.5%.

`O=C1NC(c2cccs2)C(C(=O)c2ccccc2)C(O)(C(F)(F)F)N1` (stereo not shown): the “% Inhibition @ 10 uM” value is on record as -8.37%.

`COc1ccccc1C1C(C#N)=C(N)Oc2[nH]nc(C(C)(C)C)c21` (stereo not shown): the “% Inhibition @ 10 uM” value is given as 4.52%.

For `COc1ccc(-c2cc(C(=O)O)c3ccccc3n2)c(OC)c1`, the “% Inhibition @ 10 uM” value is listed as -2.63%.

As to `O=C(Nc1cnn(Cc2ccc(F)cc2)c1)c1cc(-c2cccc(Cl)c2)on1`, the “% Inhibition @ 10 uM” value is given as -4.43%.

Regarding `Cc1cccc(CN2CCN(c3cccc(C(F)(F)F)c3)CC2)c1`, the “% Inhibition @ 10 uM” value is on record as -0.197%.

With `COc1ccc(Oc2c(C(F)(F)F)oc3c(CN4CCCCC4C)c(O)ccc3c2=O)cc1` (stereo not shown), the “% Inhibition @ 10 uM” value came out at 0.343%.

On to `O=C1/C(=C\c2cc3c(cc2Cl)OCO3)N2CCC1CC2`, for which the “% Inhibition @ 10 uM” value amounted to 0.751%.

For `COc1ccc(S(=O)(=O)Cc2ccc(C(=O)N3CCOCC3)o2)cc1`, the “% Inhibition @ 10 uM” value stood at 3.57%.

`CC1CCCC(C)N1CCCNC(=O)c1cnn(-c2ccccc2)c1-n1cccc1` (stereo not shown): the “% Inhibition @ 10 uM” value was -1.58%.

Take `CC1CCCC(C)N1CCCNC(=O)c1nn(C)c2c1CS(=O)(=O)c1ccccc1-2` (stereo not shown): the “% Inhibition @ 10 uM” value is 2.34%.

For the origin of these results see article PMC6919601, “Identification of Plasmodium dipeptidyl aminopeptidase allosteric inhibitors by high throughput screening” (PLoS ONE, 2019).
